{"source": "the supplement of paper PMC8728848", "binders": {"B1": {"name": "CML1 (Coprinopsis cinerea) (protein)", "chain": "MAIFHTGSELFIITRGPGKLTLLTWGGLNNLRSVIGAIPTENTGVTKWAVSFSHNYTRFSFIWEGQGEACYQIGNGLTRSPVGRSWSSSSTIHWGSSTVITEDVTSVVPGAVNRDKVTTAYALPDNL"}}, "assay_in_all_cases": "glycan array binding signal (z-score within array); higher = stronger binding", "settings_in_all_cases": "glycan notation: IUPAC condensed, linker removed", "key": {"[1]": {"target": "Gal(a1-6)Glc", "how_it_was_run": "(§1)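 The binding signal is a Z-score computed within each array. Data were drawn from 3228 arrays in the Consortium for Functional Glycomics database, restricted to those with a known protein sequence. Scores were averaged over arrays of the same protein sequence at different concentrations or buffers, and over linkers, and negative values can be taken as non-binding.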"}, "[2]": {"target": "Gal(b1-2)Gal", "how_it_was_run": "as §1"}, "[3]": {"target": "Gal(b1-3)Gal", "how_it_was_run": "as §1"}, "[4]": {"target": "Gal(b1-3)Gal(b1-4)GlcNAc", "how_it_was_run": "as §1"}, "[5]": {"target": "Gal(b1-3)GalNAc", "how_it_was_run": "as §1"}, "[6]": {"target": "Gal(b1-3)GalNAc(a1-3)[Fuc(a1-2)]Gal(b1-4)Glc", "how_it_was_run": "as §1"}, "[7]": {"target": "Gal(b1-3)GalNAc(a1-3)[Fuc(a1-2)]Gal(b1-4)GlcNAc", "how_it_was_run": "as §1"}, "[8]": {"target": "Gal(b1-3)GalNAc(b1-3)Gal", "how_it_was_run": "as §1"}, "[9]": {"target": "Gal(b1-3)GalNAc(b1-3)Gal(a1-4)Gal(b1-4)Glc", "how_it_was_run": "as §1"}, "[10]": {"target": "Gal(b1-3)GalNAc(b1-4)Gal(b1-4)Glc", "how_it_was_run": "as §1"}, "[11]": {"target": "Gal(b1-3)GalNAc(b1-4)[Neu5Ac(a2-3)]Gal(b1-4)Glc", "how_it_was_run": "as §1"}, "[12]": {"target": "Gal(b1-3)GlcNAc", "how_it_was_run": "as §1"}, "[13]": {"target": "Gal(b1-3)GlcNAc(a1-3)Gal(b1-4)GlcNAc", "how_it_was_run": "as §1"}, "[14]": {"target": "Gal(b1-3)GlcNAc(a1-6)Gal(b1-4)GlcNAc", "how_it_was_run": "as §1"}, "[15]": {"target": "Gal(b1-3)GlcNAc(b1-2)Man", "how_it_was_run": "as §1"}, "[16]": {"target": "Gal(b1-3)GlcNAc(b1-2)Man(a1-3)[Gal(b1-3)GlcNAc(b1-2)Man(a1-6)]Man(b1-4)GlcNAc(b1-4)GlcNAc", "how_it_was_run": "as §1"}, "[17]": {"target": "Gal(b1-3)GlcNAc(b1-2)Man(a1-3)[Gal(b1-3)GlcNAc(b1-2)Man(a1-6)]Man(b1-4)GlcNAc(b1-4)[Fuc(a1-6)]GlcNAc", "how_it_was_run": "as §1"}, "[18]": {"target": "Gal(b1-3)GlcNAc(b1-2)Man(a1-3)[GlcNAc(b1-4)][Gal(b1-3)GlcNAc(b1-2)Man(a1-6)]Man(b1-4)GlcNAc(b1-4)GlcNAc", "how_it_was_run": "as §1"}, "[19]": {"target": "Gal(b1-3)GlcNAc(b1-2)[Gal(b1-3)GlcNAc(b1-6)]Man(a1-6)[Gal(b1-3)GlcNAc(b1-2)Man(a1-3)]Man(b1-4)GlcNAc(b1-4)GlcNAc", "how_it_was_run": "as §1"}, "[20]": {"target": "Gal(b1-3)GlcNAc(b1-3)Gal(b1-3)GlcNAc", "how_it_was_run": "as §1"}, "[21]": {"target": "Gal(b1-3)GlcNAc(b1-3)Gal(b1-4)Glc", "how_it_was_run": "as §1"}, "[22]": {"target": "Gal(b1-3)GlcNAc(b1-3)Gal(b1-4)GlcNAc", "how_it_was_run": "as §1"}, "[23]": {"target": "Gal(b1-3)GlcNAc(b1-3)Gal(b1-4)GlcNAc(b1-2)Man(a1-3)[Gal(b1-3)GlcNAc(b1-3)Gal(b1-4)GlcNAc(b1-2)Man(a1-6)]Man(b1-4)GlcNAc(b1-4)GlcNAc", "how_it_was_run": "as §1"}, "[24]": {"target": "Gal(b1-3)GlcNAc(b1-3)Gal(b1-4)GlcNAc(b1-2)[Gal(b1-3)GlcNAc(b1-3)Gal(b1-4)GlcNAc(b1-6)]Man(a1-6)[Gal(b1-3)GlcNAc(b1-3)Gal(b1-4)GlcNAc(b1-2)Man(a1-3)]Man(b1-4)GlcNAc(b1-4)[Fuc(a1-6)]GlcNAc", "how_it_was_run": "as §1"}, "[25]": {"target": "Gal(b1-3)GlcNAc(b1-3)Gal(b1-4)GlcNAc(b1-3)Gal(b1-4)GlcNAc(b1-2)[Gal(b1-3)GlcNAc(b1-3)Gal(b1-4)GlcNAc(b1-3)Gal(b1-4)GlcNAc(b1-6)]Man(a1-6)[Gal(b1-3)GlcNAc(b1-3)Gal(b1-4)GlcNAc(b1-3)Gal(b1-4)GlcNAc(b1-2)Man(a1-3)]Man(b1-4)GlcNAc(b1-4)[Fuc(a1-6)]GlcNAc", "how_it_was_run": "as §1"}, "[26]": {"target": "Gal(b1-3)GlcNAc(b1-3)Gal(b1-4)GlcNAc(b1-6)[Gal(b1-3)GlcNAc(b1-3)]Gal(b1-4)Glc", "how_it_was_run": "as §1"}, "[27]": {"target": "Gal(b1-3)GlcNAc(b1-3)Gal(b1-4)[Fuc(a1-3)]GlcNAc", "how_it_was_run": "as §1"}, "[28]": {"target": "Gal(b1-3)GlcNAc(b1-3)Gal(b1-4)[Fuc(a1-3)]GlcNAc(b1-6)[Gal(b1-3)GlcNAc(b1-3)]Gal(b1-4)Glc", "how_it_was_run": "as §1"}, "[29]": {"target": "Gal(b1-3)GlcNAc(b1-3)GalNAc", "how_it_was_run": "as §1"}, "[30]": {"target": "Gal(b1-3)GlcNAc(b1-6)Gal(b1-4)GlcNAc", "how_it_was_run": "as §1"}, "[31]": {"target": "Gal(b1-3)GlcNAc(b1-6)GalNAc", "how_it_was_run": "as §1"}, "[32]": {"target": "Gal(b1-3)GlcNAc(b1-6)[Gal(b1-3)]GalNAc", "how_it_was_run": "as §1"}, "[33]": {"target": "Gal(b1-3)GlcNAc6S", "how_it_was_run": "as §1"}, "[34]": {"target": "Gal(b1-3)[Fuc(a1-4)]GlcNAc", "how_it_was_run": "as §1"}, "[35]": {"target": "Gal(b1-3)[Fuc(a1-4)]GlcNAc(b1-2)Man", "how_it_was_run": "as §1"}, "[36]": {"target": "Gal(b1-3)[Fuc(a1-4)]GlcNAc(b1-2)Man(a1-3)[Gal(b1-3)[Fuc(a1-4)]GlcNAc(b1-2)Man(a1-6)]Man(b1-4)GlcNAc(b1-4)[Fuc(a1-6)]GlcNAc", "how_it_was_run": "as §1"}, "[37]": {"target": "Gal(b1-3)[Fuc(a1-4)]GlcNAc(b1-3)Gal(b1-3)[Fuc(a1-4)]GlcNAc", "how_it_was_run": "as §1"}, "[38]": {"target": "Gal(b1-3)[Fuc(a1-4)]GlcNAc(b1-3)Gal(b1-4)[Fuc(a1-3)]GlcNAc", "how_it_was_run": "as §1"}, "[39]": {"target": "Gal(b1-3)[Fuc(a1-4)]GlcNAc(b1-6)GalNAc", "how_it_was_run": "as §1"}, "[40]": {"target": "Gal(b1-3)[GlcNAc(b1-6)]GalNAc", "how_it_was_run": "as §1"}, "[41]": {"target": "Gal(b1-3)[Neu5Ac(a2-6)]GalNAc", "how_it_was_run": "as §1"}, "[42]": {"target": "Gal(b1-3)[Neu5Ac(a2-6)]GlcNAc(b1-4)Gal(b1-4)Glc", "how_it_was_run": "as §1"}, "[43]": {"target": "Gal(b1-3)[Neu5Ac(b2-6)]GalNAc", "how_it_was_run": "as §1"}, "[44]": {"target": "Gal(b1-4)Gal", "how_it_was_run": "as §1"}, "[45]": {"target": "Gal(b1-4)GalNAc(a1-3)[Fuc(a1-2)]Gal(b1-4)GlcNAc", "how_it_was_run": "as §1"}}, "note": "Some of the results follow.", "data": [{"binder": "B1", "values": [{"measurement": "glycan array binding signal (z-score)", "setting": "[1]", "result": -0.346}, {"measurement": "glycan array binding signal (z-score)", "setting": "[2]", "result": -0.319}, {"measurement": "glycan array binding signal (z-score)", "setting": "[3]", "result": -0.338}, {"measurement": "glycan array binding signal (z-score)", "setting": "[4]", "result": -0.329}, {"measurement": "glycan array binding signal (z-score)", "setting": "[5]", "result": -0.346}, {"measurement": "glycan array binding signal (z-score)", "setting": "[6]", "result": -0.312}, {"measurement": "glycan array binding signal (z-score)", "setting": "[7]", "result": -0.354}, {"measurement": "glycan array binding signal (z-score)", "setting": "[8]", "result": -0.339}, {"measurement": "glycan array binding signal (z-score)", "setting": "[9]", "result": -0.371}, {"measurement": "glycan array binding signal (z-score)", "setting": "[10]", "result": -0.344}, {"measurement": "glycan array binding signal (z-score)", "setting": "[11]", "result": -0.352}, {"measurement": "glycan array binding signal (z-score)", "setting": "[12]", "result": -0.327}, {"measurement": "glycan array binding signal (z-score)", "setting": "[13]", "result": -0.32}, {"measurement": "glycan array binding signal (z-score)", "setting": "[14]", "result": -0.358}, {"measurement": "glycan array binding signal (z-score)", "setting": "[15]", "result": -0.341}, {"measurement": "glycan array binding signal (z-score)", "setting": "[16]", "result": -0.268}, {"measurement": "glycan array binding signal (z-score)", "setting": "[17]", "result": -0.323}, {"measurement": "glycan array binding signal (z-score)", "setting": "[18]", "result": -0.32}, {"measurement": "glycan array binding signal (z-score)", "setting": "[19]", "result": -0.331}, {"measurement": "glycan array binding signal (z-score)", "setting": "[20]", "result": -0.306}, {"measurement": "glycan array binding signal (z-score)", "setting": "[21]", "result": -0.323}, {"measurement": "glycan array binding signal (z-score)", "setting": "[22]", "result": -0.339}, {"measurement": "glycan array binding signal (z-score)", "setting": "[23]", "result": -0.318}, {"measurement": "glycan array binding signal (z-score)", "setting": "[24]", "result": -0.296}, {"measurement": "glycan array binding signal (z-score)", "setting": "[25]", "result": -0.326}, {"measurement": "glycan array binding signal (z-score)", "setting": "[26]", "result": -0.321}, {"measurement": "glycan array binding signal (z-score)", "setting": "[27]", "result": 0.476}, {"measurement": "glycan array binding signal (z-score)", "setting": "[28]", "result": -0.31}, {"measurement": "glycan array binding signal (z-score)", "setting": "[29]", "result": -0.337}, {"measurement": "glycan array binding signal (z-score)", "setting": "[30]", "result": -0.35}, {"measurement": "glycan array binding signal (z-score)", "setting": "[31]", "result": -0.336}, {"measurement": "glycan array binding signal (z-score)", "setting": "[32]", "result": -0.328}, {"measurement": "glycan array binding signal (z-score)", "setting": "[33]", "result": -0.32}, {"measurement": "glycan array binding signal (z-score)", "setting": "[34]", "result": 2.06}, {"measurement": "glycan array binding signal (z-score)", "setting": "[35]", "result": -0.284}, {"measurement": "glycan array binding signal (z-score)", "setting": "[36]", "result": -0.351}, {"measurement": "glycan array binding signal (z-score)", "setting": "[37]", "result": 2.67}, {"measurement": "glycan array binding signal (z-score)", "setting": "[38]", "result": 1.68}, {"measurement": "glycan array binding signal (z-score)", "setting": "[39]", "result": 0.085}, {"measurement": "glycan array binding signal (z-score)", "setting": "[40]", "result": -0.332}, {"measurement": "glycan array binding signal (z-score)", "setting": "[41]", "result": -0.338}, {"measurement": "glycan array binding signal (z-score)", "setting": "[42]", "result": -0.334}, {"measurement": "glycan array binding signal (z-score)", "setting": "[43]", "result": -0.351}, {"measurement": "glycan array binding signal (z-score)", "setting": "[44]", "result": -0.331}, {"measurement": "glycan array binding signal (z-score)", "setting": "[45]", "result": -0.344}]}]}
